{"source": "PubChem BioAssay AID651820", "about": "(National Center for Advancing Translational Sciences (NCATS), 2012)", "note": "Hit rate of the full screen: of about 340,000 compounds, about 12,000 (3.5%) were called active. This list was built around the results that the source calls inconclusive (neither active nor inactive); the mix of calls is not that of the screen. Calls follow the shape of the dose curve; as a rule, active = well fitted inhibition curve with a large enough effect; inconclusive = small, poorly fitted or top-dose-only effect, or another doubt; inactive = no such curve, though single readings can be large or run the other way. No potency is given beside an inconclusive call; the fits are too rough. % is scaled to controls: 0 for no effect and ±100 for the full control effect; potency is read from the fitted curve at half-maximal effect; tags tell the direction and shape of the fitted curve.", "data": [{"test": "qHTS Assay for Inhibitors of Hepatitis C Virus (HCV)", "conditions": "Huh7.5.1 HCVcc-Cre (HCVcc is cell-culture hepatitis C virus) infection, luciferase reporter, 44 h; activity change, negative = inhibition: at 41.8 µM (top of the series) unless noted", "how_it_was_run": "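Infectious HCVcc-Cre (~0.5 moi) was added to cells just after compound, with cells seeded 4 h earlier at 1,000 per well. Luciferase activity after 44 h culture reported infection; substrate was incubated 15 min at room temperature before reading.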", "values": [{"compound": "O=C(COC(=O)c1cc([N+](=O)[O-])ccc1N1CCOCC1)Nc1c(Cl)cccc1C(F)(F)F", "Potency": "inconclusive [inhibitor, single point]"}, {"compound": "CCC(C)NC(=O)CC(C)C", "note": "(stereo unspecified)", "activity change, negative = inhibition": "inactive: 5.04%"}, {"compound": "O=C(c1ccccc1F)N1CCN(c2ccc([N+](=O)[O-])c(NCC3CCCO3)c2)CC1", "note": "(stereo unspecified)", "Potency": "inconclusive [inhibitor, partial curve]"}, {"compound": "COc1cc(CN2CCN(c3cccc(Cl)c3)CC2)cc(OC)c1OC", "activity change, negative = inhibition": "inactive: -4.78%"}, {"compound": "COCCn1cc(C(=O)c2ccccc2OCC(=O)Nc2cc(C)on2)cc(C#N)c1=O", "Potency": "inconclusive [inhibitor, partial curve]"}, {"compound": "COc1ccccc1CN1C[C@@H]2C[C@@H](c3ccc4nsnc4c3)N3CCC[C@@]23C1=O", "Potency": "inconclusive [inhibitor, single point]"}, {"compound": "CN1C(=O)/C(=C/c2cccc(Cl)c2)Sc2ccc(C(=O)N3CCOCC3)cc21", "Potency": "active: 11.2 µM"}, {"compound": "O=C(c1cc(-c2ccco2)nc2ccccc12)N(Cc1nnc(-c2ccc(Cl)cc2)o1)C1CC1", "Potency": "inconclusive [inhibitor, partial curve]"}, {"compound": "C=CCc1cccc2cc(C(=O)NCc3cccnc3)c(=O)oc12", "Potency": "inconclusive [inhibitor, single point]"}, {"compound": "O=[N+]([O-])c1cc(C(F)(F)F)cc([N+](=O)[O-])c1NCCCN1CCOCC1", "Potency": "inconclusive [inhibitor, single point]"}, {"compound": "O=S(=O)(c1cccc(Br)c1)N1CCN(c2ccnc3cc(Cl)ccc23)CC1", "Potency": "inconclusive [inhibitor, single point]"}, {"compound": "CCOc1ccccc1NC(=O)N1CCCC(c2nc(-c3ccc(C)o3)no2)C1", "note": "(stereo unspecified)", "Potency": "inconclusive [inhibitor, full curve, poor fit]"}, {"compound": "Cc1ccc2[nH]c(=O)c(CN(c3cccc(C)c3C)S(=O)(=O)c3ccccc3)cc2c1", "Potency": "inconclusive [inhibitor, full curve]"}, {"compound": "CN1CCN(CC(=O)Nc2sc3c(c2C(=O)Nc2ccccc2)CCCC3)CC1", "Potency": "inconclusive [inhibitor, single point]"}, {"compound": "O=C(NCCN1C(=O)S/C(=C\\c2cccnc2)C1=O)c1cccc(OC(F)F)c1", "activity change, negative = inhibition": "inactive: 1.89%"}, {"compound": "O=C(NC(=S)NNC(=O)c1ccco1)c1ccc(F)cc1", "Potency": "inconclusive [inhibitor, single point]"}, {"compound": "C(#Cc1ccc(C#CCN2CCOCC2)cc1)CN1CCOCC1", "activity change, negative = inhibition": "inactive: -3.52%"}, {"compound": "O=C(CS(=O)(=O)c1c[nH]c2ccccc12)N1CCCCCC1", "Potency": "inconclusive [inhibitor, partial curve]"}, {"compound": "O=C(CNC(=O)c1ccc(Br)o1)NCc1ccc(F)cc1", "activity change, negative = inhibition": "inactive: 16.4%"}, {"compound": "O=C(NCC1CCCN1S(=O)(=O)c1cccs1)c1ccc(F)c(F)c1", "note": "(stereo unspecified)", "Potency": "inconclusive [inhibitor, single point]"}, {"compound": "Cc1ccc(S(=O)(=O)N2CCOC2CNC(=O)C(=O)NCCc2c[nH]c3ccccc23)cc1", "note": "(stereo unspecified)", "Potency": "inconclusive [inhibitor, single point]"}, {"compound": "CCN1CCN(C(=O)CCCCCn2c(=O)[nH]c3cc(C(=O)OC)ccc3c2=O)CC1", "activity change, negative = inhibition": "inactive: 6%"}, {"compound": "Cc1nnc(SCc2ccc(F)cc2)n1NC/C=C/c1ccccc1", "Potency": "inconclusive [inhibitor, partial curve, poor fit]"}, {"compound": "CCn1c(-c2csc(-c3ccc(Cl)cc3)n2)n[nH]c1=S", "Potency": "inconclusive [inhibitor, single point]"}, {"compound": "CCN(CCO)c1ccc(N=Cc2c(O)n(C)c(=S)[nH]c2=O)cc1", "activity change, negative = inhibition": "inactive: -13.9%"}, {"compound": "COc1ccc(S(=O)(=O)N2CCOC2CNC(=O)C(=O)NCCc2ccccc2OC)cc1C", "note": "(stereo unspecified)", "Potency": "inconclusive [inhibitor, single point]"}, {"compound": "COCc1cc(N2CCCC2)nc(-c2ccccc2)n1", "Potency": "inconclusive [inhibitor, single point]"}, {"compound": "CCN(Cc1nc2ccccc2c(=O)[nH]1)C(=O)c1cccc(S(=O)(=O)N2CCc3ccccc32)c1", "Potency": "inconclusive [inhibitor, full curve]"}, {"compound": "COc1ccc(S(=O)(=O)N2CCCCC2)cc1NC(=O)Cc1ccsc1", "activity change, negative = inhibition": "inactive: -2.4%"}, {"compound": "Cc1ccc(S(=O)(=O)Nc2ccc(-c3cn4ccc(C)cc4n3)cc2)cc1", "Potency": "inconclusive [inhibitor, single point]"}, {"compound": "CC(=Nc1ccc(Br)cc1)c1sc2ccccc2c1O", "Potency": "inconclusive [inhibitor, single point]"}, {"compound": "CCOc1ccccc1C1CC(=O)NC(SCC)=C1C#N", "note": "(stereo unspecified)", "activity change, negative = inhibition": "inactive: -17.8%"}, {"compound": "Cc1cc2cc3c(cc2nc1SCC(=O)Nc1nc(C)c(C)s1)OCO3", "Potency": "inconclusive [inhibitor, partial curve]"}, {"compound": "CCOCCCNc1nc2ccccc2[nH]1", "Potency": "inconclusive [inhibitor, partial curve]"}, {"compound": "NS(=O)(=O)c1cccc(NC(=O)CCCC2CCCCC2)c1", "activity change, negative = inhibition": "inactive: 9.62%"}, {"compound": "Cc1ccc(N(CC(=O)N2CCCCC2)S(=O)(=O)c2ccc(C)cc2)cc1", "activity change, negative = inhibition": "inactive: 22.5%"}, {"compound": "CC(=O)N1CCN(C(=O)CNC(=O)c2ccc(C)s2)CC1", "activity change, negative = inhibition": "inactive: 21.4%"}, {"compound": "Cc1ccc(NC(=O)CSc2nn(-c3ccc(Cl)cc3)c(=S)s2)cc1S(=O)(=O)N(C)C", "Potency": "active: 12.6 µM"}, {"compound": "COc1ccc(OC)c(Nc2nc(-c3ccccc3O)nc3ccccc23)c1", "Potency": "inconclusive [inhibitor, full curve, poor fit]"}, {"compound": "Cc1ccc(C)c(C(=O)COC(=O)c2cc([N+](=O)[O-])ccc2N2CCOCC2)c1", "Potency": "inconclusive [inhibitor, partial curve]"}, {"compound": "Cc1ccc(-c2nc(NC(=O)c3nn(C)cc3[N+](=O)[O-])sc2C)cc1C", "Potency": "inconclusive [inhibitor, partial curve]"}, {"compound": "COC(=O)c1ccc(C(=O)OC)c(NC(=O)CN2CCN(c3ccccc3OC)CC2)c1", "Potency": "inconclusive [inhibitor, partial curve]"}, {"compound": "CCOC(=O)c1nnn(-c2ccc([N+](=O)[O-])cc2[N+](=O)[O-])c1C", "Potency": "inconclusive [inhibitor, single point]"}, {"compound": "CCSc1ncnc2sc3c(c12)CCC3", "Potency": "active: 25.1 µM"}, {"compound": "N#Cc1ccsc1NC(=O)CN1CCN(S(=O)(=O)c2ccccc2C(F)(F)F)CC1", "activity change, negative = inhibition": "inactive: -0.0054%"}, {"compound": "CC1Cc2ccccc2N1c1ncnc2nc[nH]c12", "note": "(stereo unspecified)", "activity change, negative = inhibition": "inactive: -3.22%"}, {"compound": "O=C(N/N=C/c1ccncc1)c1ccccc1OCc1ccc(Br)cc1", "Potency": "inconclusive [inhibitor, partial curve]"}, {"compound": "CNc1ccccc1C(C)(C)c1cc(-c2ccc(F)cc2)no1", "Potency": "active: 3.98 µM"}, {"compound": "CCOC(=O)N1CCN(c2ccc3nnnn3n2)CC1", "activity change, negative = inhibition": "inactive: 1.2%"}, {"compound": "CC(C(=O)Nc1ccccc1)N(C)CCOc1ccccc1", "note": "(stereo unspecified)", "Potency": "inconclusive [inhibitor, single point]"}, {"compound": "Cc1cc(C(=O)COC(=O)c2cccn2C)c(C)n1Cc1ccco1", "Potency": "inconclusive [inhibitor, single point]"}, {"compound": "O=C(CSc1nccn1Cc1ccco1)Nc1cccc(F)c1", "Potency": "inconclusive [inhibitor, partial curve]"}, {"compound": "COc1ccc2c(c1)OC[C@H]1[C@H]2N2C(=O)CN(Cc3ccc(Cl)cc3)C(=O)[C@@]2(C)[C@H]1c1ccccc1", "Potency": "active: 11.2 µM"}, {"compound": "N#Cc1ccccc1NCc1ccccc1", "activity change, negative = inhibition": "inactive: 16.2%"}, {"compound": "O=C(Nc1ccccc1OC(F)F)c1cc2c(s1)CCC2", "Potency": "inconclusive [inhibitor, single point]"}, {"compound": "CCOC(=O)c1cc2c(=O)c3ccccc3oc2nc1C", "activity change, negative = inhibition": "inactive: 2.76%"}, {"compound": "C=CC[C@H](CC(=O)OC(C)(C)C)C(=O)OC[C@@H]1CCCN1C(=O)[C@H](CC=C)CC(=O)N[C@H](CO)Cc1ccccc1", "Potency": "inconclusive [inhibitor, partial curve]"}, {"compound": "Cc1cc(N2CCCCC2)n2ncc(-c3ccccc3)c2n1", "Potency": "active: 10 µM"}, {"compound": "Cc1cc(C)c(C)c(S(=O)(=O)NNC(=O)c2cccc(S(=O)(=O)N3CCOCC3)c2)c1C", "Potency": "inconclusive [inhibitor, partial curve]"}, {"compound": "Cc1sc2ncnc(N(C)Cc3cccs3)c2c1C", "Potency": "inconclusive [inhibitor, single point]"}, {"compound": "Cc1nc2ccc(NC(=O)c3ccc([N+](=O)[O-])cc3)cc2s1", "Potency": "inconclusive [inhibitor, single point]"}, {"compound": "CC(=O)N(c1ccccc1C)c1ccccc1C", "activity change, negative = inhibition": "inactive: 9.37%"}, {"compound": "CCOc1ccc(-c2noc(CCCC(=O)NC3CCCC3)n2)cc1OC", "Potency": "inconclusive [inhibitor, single point]"}, {"compound": "CC(C)(C)[C@H]1COC(=O)[C@@H](Cc2ccc(F)cc2)CC/C=C/C[C@@H](CC(=O)N[C@@H](CO)Cc2ccccc2)C(=O)N1", "Potency": "inconclusive [inhibitor, single point]"}, {"compound": "COC(=S)Nc1cccc(C(F)(F)F)c1", "activity change, negative = inhibition": "inactive: 14.5%"}, {"compound": "O=C(CSc1ncnc2scc(-c3ccccc3)c12)N1CCN(c2ccccc2F)CC1", "Potency": "inconclusive [inhibitor, single point]"}, {"compound": "COC(=O)c1ccc(S(=O)(=O)N2CCCN(Cc3cccc(Br)c3F)CC2)n1C", "Potency": "inconclusive [inhibitor, single point]"}, {"compound": "CN(CCC#N)C(=O)COC(=O)c1cc(Cl)cc(Cl)c1N", "activity change, negative = inhibition": "inactive: 11%"}, {"compound": "O=C(NCc1ccc2c(c1)OCO2)c1cc(-c2ccccn2)nc2ccccc12", "Potency": "active: 10 µM"}, {"compound": "O=C1CCN(Cc2ccccc2)CCN1CCOc1ccccc1", "Potency": "inconclusive [inhibitor, single point]"}, {"compound": "Cc1cc(C(=O)N/N=C2\\CC(=O)CC(C)(C)C2)c(C)n1-c1ccc(F)cc1", "activity change, negative = inhibition": "inactive: -19.7%"}]}]}
